# Some of the results follow.
# Tested on: T1, C. trachomatis L2/434/Bu expressing GFP (CTL2-GFP)
# T1 construct: L2/434/Bu GFP intracellular growth in HeLa cells
# Design: species or system HeLa; C. trachomatis total inclusion area by high-content imaging, normalised to DMSO
# Conditions: total inclusion area; 28.5 h, 10 µM; inhibitor
# Method in brief: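 High-content imaging followed the bulk GFP/resorufin measurement: fixed, Hoechst-stained cells were scored for GFP inclusions and host nuclei per well. Total inclusion area and count served as growth proxies, nuclei number as the viability proxy. MIC calculation matched the bulk assay.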
row,SMILES,% of control remaining
1,Cc1ccc(N(CC(=O)NN=C2CCCCCCCCCCC2)S(=O)(=O)c2ccccc2)cc1 [CBK262192],102.517
2,O=[N+]([O-])c1ccccc1CS(=O)(=O)Nc1ccc(-c2nnn[nH]2)cc1 [CBK155430],85.9864
3,O=C1CCC(C(=O)N2CCN(S(=O)(=O)c3ccccc3Cl)CC2)N1 (centres unmarked) [CBK304561],56.6779
4,COc1ccc(C(NC(=O)[C@H]2CCCN2C(=O)COc2ccccc2)c2ccccc2C)cn1 (some centres unmarked) [CBK076682],74.4992
5,CCN1C(=O)CC(n2c(C)nc3ccccc32)C1=O (centres unmarked) [CBK287847],89.7967
6,O=C(CSc1nnc(C2CC2)[nH]1)Nc1ccc(SC(F)F)cc1 [CBK295302],91.7453
7,CCc1nc2ccc(C(=O)N(C)C(C)C)cn2c1N(C)CCN1CCOCC1 [CBK146436],101.166
8,Cn1c(CNc2ccccc2[N+](=O)[O-])c(C#N)c2ccccc21 [CBK115324],90.2163
9,Clc1ccc2nc(SCc3csc(Nc4ccccc4)n3)oc2c1 [CBK268269],97.4493
10,Cc1ccc(C(=O)NCCCNc2ccc(Cl)cc2[N+](=O)[O-])cc1 [CBK262334],80.8556
11,CCC(=O)N1CCc2cc(C(O)CN3CCCC3)ccc21 (centres unmarked) [CBK283110],59.7613
12,CC(C)(C)OC(=O)NCc1ccc(-c2cc(N3CCN(C(=O)c4ccco4)CC3)ncn2)cc1 [CBK091107],147.294
13,O=C(NCC1(c2cccc(Br)c2)CCOCC1)C1CC(O)CN1 (centres unmarked) [CBK304257],20.3146
14,O=C(CNC(=O)C1CC=CCC1C(=O)O)Nc1ccc(N2CCCCCC2)cc1 (centres unmarked) [CBK295603],92.9856
15,O=C(NC1CCCCC1)c1s/c(=N/O)nnc1Nc1ccccc1 [CBK022275],51.5107
16,COc1cc(OC)nc(CC(=O)O)n1 [CBK103537],90.1311
17,COc1cc(C)c(C)cc1S(=O)(=O)n1cnc2ccccc21 [CBK287578],68.1694
18,CN(Cc1ccco1)C(=O)c1cccc(NC(=O)C2CC2)c1 [CBK304857],44.9126
19,CCc1c(C(=O)NCc2cccnc2-n2cncn2)cnn1-c1ccc(OC)nn1 [CBK298309],91.3628
20,CCOC(=O)CNS(=O)(=O)c1ccc(F)cc1 [CBK034442],90.7434
21,COc1ccc(-c2cnc(NCC3CC3)c(C(=O)N(C)CCN(C)C)c2)cc1 [CBK076338],103.092
22,CCSc1c(C)cnc2c1c(=O)n(C)c(=O)n2C [CBK287748],62.9743
23,COc1ccnc(N2CCN(C(=O)C3(C#N)CCCCC3)CC2)n1 [CBK305739],88.4406
24,O=C(O)/C=C/c1ccc(CNS(=O)(=O)c2ccccc2)o1 [CBK286549],104.202
25,CN(C)c1cccc(-c2nc(-c3ccco3)cnc2N)c1 [CBK063970],156.943
26,Nc1nnc(-c2ccc(Cl)cc2)[nH]1 [CBK025436],121.644
27,Cc1noc(NS(=O)(=O)c2ccc(N/C=C\C(=O)c3cccnc3)cc2)c1C [CBK264285],26.8055

row,SMILES,% of control remaining
1,Cc1ccc(CNC(=O)NCCc2cccs2)cc1 [CBK044960],87.7096
2,O=C(CN1C2CCC1CC(O)(c1ccco1)C2)N1CCCCC1 (centres unmarked) [CBK284093],79.3242
3,COc1cccc(NC(=O)O[C@@H]2CC[C@]3(C)C(CC[C@H]4OC(=O)C[C@H]43)[C@]2(C)CO)c1 (some centres unmarked) [CBK289576],120.832
4,O=C(OCc1ccc(Cl)cc1)c1ccc2c(c1)C(=O)N(c1cccc([N+](=O)[O-])c1)C2=O [CBK265188],89.7489
5,Cc1cc(F)c(S(=O)(=O)NCCN2CCOCC2)cc1NC(=O)c1ccc(Br)o1 [CBK059091C],10.405
6,CC(C)N1CCCC2(CCN(C(=O)Cc3c[nH]c(=O)n(C)c3=O)C2)C1=O (centres unmarked) [CBK307115],71.0172
7,CCOCCCNC(=O)c1cnn2c(C)c(Cc3cccc(C#N)c3)c(C)nc12 [CBK162081],73.7225
8,CC(=O)Nc1cccc(-c2ccc(Nc3cccc(N(C)C)c3)nc2)c1 [CBK036829],139.809
9,COc1ccc(OC)c(NC(=O)CSc2nnc(-c3ccc(N)cc3)n2C)c1 [CBK265872],113.161
10,COc1cccc(C(=O)N2CCN(C(=O)Nc3ccsc3)CC2)c1 [CBK154782],74.0782
11,CCN(CC)C(=O)c1c(NS(=O)(=O)c2ccc(C)cc2)sc2c1CCCC2 [CBK028627],111.263
12,COc1cc([N+](=O)[O-])cc(CN2CCN(CCO)CC2)c1O [CBK261851],87.351
13,COc1cc(NC(=O)NC(=O)C2CCN(C(C)=O)CC2)cc(OC)c1OC [CBK034831],84.7735
14,O=C(NC(c1ccc(Cl)cc1)c1cnccn1)C1CCN(Cc2ccc(Oc3ccccc3)cc2)CC1 (centres unmarked) [CBK148023],64.9052
15,COc1ccc(/C=N/NC(=O)Cn2nnnc2N)cc1 [CBK262122],103.198
16,O=C(Cc1ccc(-c2ccccc2)cc1)NCc1nnc(-c2cccs2)o1 [CBK286295],115.159
17,CC1=NN(c2cccc(S(=O)(=O)O)c2C(=O)Nc2ccccc2)C(=O)C1 [CBK017343],75.6183
18,Cc1ccc(Cl)cc1NC(=O)CC1NCCNC1=O (centres unmarked) [CBK267246],101.174
19,O=C(O)CN(CC(=O)Nc1ccc(Cl)cc1)Cc1ccccc1 [CBK286585],91.2355
20,Cc1ccc2oc(=O)cc(N/N=C(\Cl)C(N)=S)c2c1 [CBK022357],73.0797
21,Cn1c(COc2ccccc2Cl)nnc1SCC(=O)N1c2ccccc2Sc2ccccc21 [CBK266001],121.153
22,CCCn1c(CN2CCOCC2)nc2c1c(=O)n(C)c(=O)n2C [CBK305911],26.1382
23,Nc1ccc2c(-c3ccc(OC(F)(F)F)cc3)ccnc2n1 [CBK067649],78.3787
24,O=C(NC(=S)N1CCN(CCN2C(=O)c3cccc4cccc(c34)C2=O)CC1)c1ccc2c(c1)OCO2 [CBK263577],91.2612
25,O=C(CC(NC1CCCC1)C(=O)O)Nc1cccc(Cl)c1 (centres unmarked) [CBK266831],107.269
26,CCOc1ccc(-c2nc(C#N)c(NCCN3CCOCC3)o2)cc1 [CBK265867],108.517
27,CC(NC(=O)C1CC(=O)OC1(C)C)c1ccc2c(c1)CCCO2 (centres unmarked) [CBK281613],102.373

row,SMILES,% of control remaining
1,CS(=O)(=O)N1CCc2cc(-c3cn4ccccc4n3)ccc21 [CBK285190],105.948
2,Cn1cnc([N+](=O)[O-])c1Oc1ccccc1OCc1ccccc1 [CBK002747],103.065
3,O=C(O)c1cc(-c2ccc(/C=C3\NC(=O)N(Cc4ccccc4)C3=O)o2)ccc1Cl [CBK078117],94.8678
4,Cn1c(C(O)c2ccccc2)n[nH]c1=S (centres unmarked) [CBK012984],98.1368
5,Cc1nn(CCS(C)(=O)=O)c(C)c1CN1CCOC(c2ccccc2)C1 (centres unmarked) [CBK306162],45.3068
6,O=C(O)/C=C/C(=O)NCCc1c[nH]c2ccccc12 [CBK287222],104.151
7,OCC1CCCN1c1nccnc1-c1ccccc1F (centres unmarked) [CBK038037],88.1643
8,Cc1ccc2cc(CN(CCNC(=O)OC(C)(C)C)C(=O)NCc3ccccc3)c(=O)[nH]c2c1C [CBK132097],86.6192
9,COC(=O)c1ccc2c(=O)n(CC(C)C)c(SC)nc2c1 [CBK306042],54.8942
10,O=C(CS(=O)(=O)c1ccccc1)Nc1cccc2nsnc12 [CBK267949],103.992
11,CCC1CCCCN1C(=O)c1cccc(C)c1C (centres unmarked) [CBK081501],68.7523
12,CCn1nc(C)c(-c2cncn2CCN(C)C2CCCC2)c1C [CBK281569],96.8359
13,Oc1cc(C(F)(F)F)nc(N2CCCC2)n1 [CBK002389],71.7041
14,C=CCn1c(Cc2csc(NC(=O)c3ccc(OC)c(OC)c3)n2)n[nH]c1=S [CBK295324],119.359
15,COc1ccccc1CC(=O)Nc1ccc(OCC(=O)O)cc1 [CBK264194],111.987
16,O=C(NCc1ccco1)[C@@H]1C=CCN1C(=O)NCc1ccccc1 [CBK284293],95.5291
17,Cc1nccc(-c2cccc(NC3CCN(c4ccc5c(c4)OCCO5)CC3)c2)n1 [CBK286439],102.642
18,CCOC(=O)c1sc2ncccc2c1N [CBK115371],98.1521
19,Nc1ncc(-c2cccc(CO)c2)nc1N1CCOCC1 [CBK063406],133.82
20,Cc1cccc(N2CCN(C(=O)C3C4CCC(O4)C3C(=O)O)CC2)c1C (centres unmarked) [CBK287044],77.7158
21,Cc1cccc(-c2ncc(NC(=O)c3cccc(N(C)C)c3)nc2-c2ccco2)c1 [CBK036654],93.6915
22,COc1ccc2[nH]cc(CCNC(=O)c3ccc(Cl)c(Cl)c3)c2c1 [CBK115870],24.7342
23,COc1ccc(C(NC(=O)C2CCN(CCOc3ccc4ccccc4c3)CC2)c2ccccc2C)cn1 (centres unmarked) [CBK148792],4.834
24,Cc1csc2c(N3CCC(NCCc4ccnn4C)CC3)ncnc12 [CBK307515],57.3363
25,CC(Oc1ccc(S(=O)(=O)N2CCN(C)CC2)cc1)C(=O)NC1CCCCC1 (centres unmarked) [CBK269943],90.9091
26,Cc1sc2nc(C3CC3)n(C3CCNCC3)c(=O)c2c1C [CBK284228],80.6184
